From the antibiotic and cytotoxicity screens of Wong et al. (2023)
The list shows a part of the results.

Tested on: HSkMC (human skeletal muscle cells)
Assay: cytotoxicity call (relative viability < 0.9)
Conditions: 10 µM

| SMILES | cytotoxicity call |
| --- | --- |
| COc1ccc(NC(=O)Nc2ccc3c(c2)C(=O)N([C@@H](C)CO)C[C@H](C)[C@@H](CN(C)C(=O)Cc2ccccc2)OCCCC[C@@H](C)O3)cc1 | inactive |
| C[C@H]1CN([C@@H](C)CO)C(=O)c2cccc(NC(=O)Nc3cccc4ccccc34)c2O[C@@H]1CN(C)C(=O)Nc1ccc(F)cc1 | inactive |
| C[C@H]1CN([C@@H](C)CO)C(=O)c2cc(NS(=O)(=O)c3ccccc3)ccc2O[C@H]1CN(C)S(=O)(=O)c1ccccc1 | inactive |
| CCn1[nH]c(N)c2c(=O)[nH]c(=O)cc1-2 | inactive |
| C[C@@]1(c2cccs2)CC(c2cccs2)=Nc2ccccc2N1 | inactive |
| COc1ccc(-c2coc3cc(OC)ccc3c2=O)c(O)c1 | inactive |
| C[C@H](CO)N1C[C@H](C)[C@H](CN(C)S(=O)(=O)c2cccs2)Oc2ccc(NS(=O)(=O)c3ccc(F)cc3)cc2C1=O | inactive |
| Cc1ccc(S(=O)(=O)Nc2ccc3c(c2)CC(=O)N([C@H](C)CO)C[C@@H](C)[C@H](CN(C)Cc2ccc(Cl)c(Cl)c2)O3)cc1 | inactive |
| Cc1noc(C)c1S(=O)(=O)Nc1ccc2c(c1)C(=O)N([C@H](C)CO)C[C@H](C)[C@@H](CN(C)S(=O)(=O)c1cn(C)cn1)O2 | inactive |
| C[C@H](CO)N1C[C@H](C)[C@H](CN(C)Cc2cccc(C(F)(F)F)c2)Oc2ncc(C#CCN(C)C)cc2C1=O | inactive |
